Measurements reported in PubChem BioAssay AID2528 (National Center for Advancing Translational Sciences (NCATS), 2010).
Screen size: about 350,000 compounds; about 700 (0.2%) were called active. Calls come from the whole dose curve; as a rule, active = well fitted inhibition curve with a large enough effect; inconclusive = small, poorly fitted or top-dose-only effect; inactive = flat fitted curve, though single readings scatter. The entries are a selection whose mix differs from that of the whole data set.

target: RecQ-like DNA helicase BLM (Homo sapiens) (UniProt P54132); assay: qHTS Assay for Inhibitors of Bloom's syndrome helicase (BLM); settings: recombinant BLM DNA unwinding, fluorescence dequenching; series mostly up to 56.1 µM; activity change, negative = inhibition: at the top concentration; note: nearly all actives have a fitted effect of over 35% in size;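 for activity change, negative = inhibition: plate controls were vehicle for no effect and no enzyme for full effect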
Excerpt: Survival of cells and the faithful propagation of the genome depend on elaborate mechanisms of detecting and repairing DNA damage. Treatment of advanced cancer relies on radiation therapy or chemotherapy, which kill cancer cells by causing extensive DNA damage. It is often found, that cancer cells develop resistance to therapy through enhanced activity of DNA repair functions; this has led to an increased interest in developing drugs that interfere with DNA repair, which could sensitize cancer cells to conventional therapy.
This validation qHTS assay pertains to human BLM, which is important in resolving abnormal DNA structures formed during replication or homologous recombination. Shutting down the expression of BLM leads to chromosomal instability and higher radiation sensitivity in cultured cells.
The validation assay was a fluorescence quenching based kinetic qHTS for BLM Helicase DNA unwinding. The activity was measured as ATP-dependent separation of a 20-bp DNA duplex extended by 30-nt single-stranded tails (forked duplex). The forked DNA substrate was tagged with rhodamine fluorophore (carboxytetramethyl rhodamine, TAMRA) and BHQ-2 (Black Hole Quencher 2) dark quencher. Strand separation results in an increase in the fluorescence of TAMRA (excitation 525 nm, emission 598 nm). This substrate construct operates in a red-shifted region where very few compound library members have been noted to fluoresce (PubChem AIDs 593 and 594). An additional feature of the assay is the inclusion of 2.5 ug/ml poly (dIdC), to reduce interference by compounds such as DNA intercalators, a major source of false inhibitors.
Ian Hickson, University of Oxford
Opher Gileadi, Structural Genomics Consortium, University of Oxford
Screening Center PI: Austin, C.P.
Screening Center: NIH Chemical Genomics Center [NCGC]
Three uL of reaction buffer (25 mM Tris-HCl (pH 8.0), 5 mM NaCl, 2 mM MgCl2, 1mM DTT, 0.01% Tween- 20, and 2.5 ug/ml poly(dI-dC), including enzyme (50 nM BLM), were dispensed into a 1536-well Greiner black assay plate via solenoid-valve based nanoliter dispensers. Compounds (23 nl each in columns 5-48) and control (23 nl each in column 2 as dose-response) were transferred via a Kalypsys pintool equipped with a 1536-pin array. The plates were incubated for 15 min at room temperature, and then 1 ul of substrates (200 nM DNA and 2 mM ATP, final concentrations) was added to start the reaction. The plate was transferred into a ViewLux high-throughput CCD imager where the reaction progress was measured in a discontinuous kinetic mode (two reads spaced 2 hours apart, with intermediate room temperature incubation of the covered assay plate) by using standard red-fluorescence optics (excitation filter 525 nm, emission filter 598 nm). Enzyme-free and vehicle (DMSO) controls were included for signal normalization.
Potency is the fitted concentration of half-maximal effect.

Sequence of UniProt P54132 (P54132 whole entry, looked up): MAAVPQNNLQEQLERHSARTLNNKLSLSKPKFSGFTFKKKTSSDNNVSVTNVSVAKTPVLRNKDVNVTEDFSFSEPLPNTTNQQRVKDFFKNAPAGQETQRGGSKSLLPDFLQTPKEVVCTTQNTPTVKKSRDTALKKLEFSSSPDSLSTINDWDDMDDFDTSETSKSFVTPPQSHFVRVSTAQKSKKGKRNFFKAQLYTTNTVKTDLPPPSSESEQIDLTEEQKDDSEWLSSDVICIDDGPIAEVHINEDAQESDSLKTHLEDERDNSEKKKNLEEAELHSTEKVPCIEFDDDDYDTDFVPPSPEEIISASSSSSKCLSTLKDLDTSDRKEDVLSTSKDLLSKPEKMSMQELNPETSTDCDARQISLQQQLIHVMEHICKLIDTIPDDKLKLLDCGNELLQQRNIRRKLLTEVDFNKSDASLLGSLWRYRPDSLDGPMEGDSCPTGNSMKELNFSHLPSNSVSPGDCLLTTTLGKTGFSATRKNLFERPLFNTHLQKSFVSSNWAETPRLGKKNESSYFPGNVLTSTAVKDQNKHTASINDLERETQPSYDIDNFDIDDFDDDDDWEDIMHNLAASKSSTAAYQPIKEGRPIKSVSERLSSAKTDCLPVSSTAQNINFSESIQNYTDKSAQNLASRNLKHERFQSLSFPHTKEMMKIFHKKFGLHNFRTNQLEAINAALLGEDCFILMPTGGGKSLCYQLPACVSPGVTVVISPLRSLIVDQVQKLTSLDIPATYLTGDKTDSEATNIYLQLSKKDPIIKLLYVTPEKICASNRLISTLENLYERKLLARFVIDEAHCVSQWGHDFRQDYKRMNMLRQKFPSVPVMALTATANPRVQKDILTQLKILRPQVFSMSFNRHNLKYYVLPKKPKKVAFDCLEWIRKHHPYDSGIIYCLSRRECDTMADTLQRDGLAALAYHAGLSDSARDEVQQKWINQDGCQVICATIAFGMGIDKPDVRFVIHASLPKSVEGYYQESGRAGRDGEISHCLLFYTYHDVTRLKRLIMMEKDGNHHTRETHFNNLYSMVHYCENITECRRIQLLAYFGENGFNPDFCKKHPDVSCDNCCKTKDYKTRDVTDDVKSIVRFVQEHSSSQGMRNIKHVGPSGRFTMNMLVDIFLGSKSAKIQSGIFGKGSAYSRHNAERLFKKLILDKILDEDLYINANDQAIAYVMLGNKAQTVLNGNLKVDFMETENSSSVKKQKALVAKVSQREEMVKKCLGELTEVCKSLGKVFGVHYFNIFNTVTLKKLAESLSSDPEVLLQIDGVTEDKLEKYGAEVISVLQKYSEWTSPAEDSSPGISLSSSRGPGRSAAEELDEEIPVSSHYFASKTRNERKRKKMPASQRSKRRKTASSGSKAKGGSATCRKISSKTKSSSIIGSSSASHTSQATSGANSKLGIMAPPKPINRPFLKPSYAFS

| SMILES | activity change, negative = inhibition | Potency |
| --- | --- | --- |
| CN1CC[C@]2(C)c3cc(O)ccc3N(C)[C@@H]12 | inactive: -10.8% [at 21.4 µM] | – |
| O=c1[nH]oc2c1CCNC2 | – | inactive |
| CNc1ccc2oc(C[C@@H]3OC4(CC[C@@H]3C)O[C@H](C(C)C(=O)c3ccc[nH]3)[C@H](C)C[C@H]4C)nc2c1C(=O)O (stereo partly specified) | inactive: 1.06% | – |
| COc1ccc2c(c1OC)C(=O)O[C@H]2[C@H]1c2cc3c(cc2CCN1C)OCO3 | inactive: 0.126% [at 21.4 µM] | – |
| CC[C@@H](CO)NC(=O)[C@@H]1C=C2c3cccc4[nH]cc(c34)C[C@H]2N(C)C1 | inactive: -16.6% | – |
| CNC(C)[C@@H](O)c1ccccc1 (stereo partly specified) | inactive: -7.82% | – |
| O=C(CCCN1CCC2(CC1)C(=O)NCN2c1ccccc1)c1ccc(F)cc1 | – | inactive |
| NCC1(CC(=O)O)CCCCC1 | – | inactive |
| CC(=O)[C@H]1CC[C@H]2C3CC[C@H]4C[C@H](O)CC[C@]4(C)C3CC[C@]12C (stereo partly specified) | inactive: -0.889% | – |
| O=C(O)CC[N+](=O)[O-] | inactive: -13.5% | – |
| CN1C[C@H](CNC(=O)OCc2ccccc2)C[C@@H]2c3cccc4c3c(cn4C)C[C@H]21 | – | inactive |
| COc1ccc2c(c1OC)C(=O)OC2C1c2cc3c(cc2CCN1C)OCO3 (stereo unspecified) | – | inactive |
| CN1CCC[C@H]1c1cccnc1 | inactive: 0.0003% | – |
| CC(C)c1cccc(C(C)C)c1O | – | inactive |
| NC1C[C@H]1c1ccccc1 (stereo partly specified) | inactive: -15.2% | – |
| CN1C[C@H](C(=O)N[C@]2(C)O[C@@]3(O)[C@H]4CCCN4C(=O)[C@H](Cc4ccccc4)N3C2=O)C[C@H]2c3cccc4[nH]cc(c34)C[C@@H]21 | inactive: -15.4% | – |
| C/C=C(/C)C(=O)O[C@H]1C(C)=C2[C@H]([C@@H]1OC(=O)CCCCCCC)[C@@](C)(OC(C)=O)C[C@H](OC(=O)CCC)[C@@]1(O)[C@H]2OC(=O)[C@@]1(C)O | inactive: -17.4% | – |
| Cc1o[nH]c(=O)c1C[C@H](N)C(=O)O | – | inactive |
| c1ccc2c(c1)OCC(C1=NCCN1)O2 (stereo unspecified) | – | inactive |
| CC[C@@H](CO)NC(=O)[C@@H]1C=C2c3cccc4c3c(cn4C)C[C@H]2N(C)C1 | – | inactive |
| C[C@H](CCC(=O)O)[C@H]1CC[C@@H]2[C@H]3CC[C@H]4C[C@@H](O)CC[C@@]4(C)[C@H]3CC[C@]21C | inactive: -5.44% [at 21.4 µM] | – |
| CCN(CC)C(=O)N[C@H]1C[C@@H]2c3cccc4[nH]cc(c34)C[C@H]2N(C)C1 | inactive: -8.82% | – |
| CN1/C(=C\C=C\C2=[N+](C)c3ccc4ccccc4c3C2(C)C)C(C)(C)c2ccccc21 | – | active: 31.6 µM |
| O=C1NC(=S)N(Cc2ccco2)C(=O)/C1=C\c1cccs1 | – | active: 28.2 µM |
| CC1OC1P(=O)(O)O (stereo unspecified) | inactive: -1.24% | – |
| C[N+]1(C)[C@@H]2CC(OC(=O)[C@H](CO)c3ccccc3)C[C@H]1[C@@H]1O[C@@H]12 (stereo partly specified) | – | inactive |

| SMILES | activity change, negative = inhibition | Potency |
| --- | --- | --- |
| CC(CCC(=O)O)C1CCC2C3CC[C@H]4CC(O)CC[C@@]4(C)C3CC[C@@]12C (stereo partly specified) | inactive: -29.8% | – |
| CNc1ccc2oc(C[C@H]3O[C@]4(CC[C@H]3C)O[C@H]([C@H](C)C(=O)c3ccc[nH]3)[C@H](C)C[C@H]4C)nc2c1C(=O)O | inactive: -0.188% | – |
| COC(=O)N1CCN(C(=O)Cc2ccc(Cl)c(Cl)c2)C(CN2CCCC2)C1 (stereo unspecified) | inactive: -6.5% | – |
| CCCN(CCC)C1Cc2cc(OC)c(OC)cc2C1 | inactive: -3.06% | – |
| C[N+]1(C)C2CCC1CC(OC(=O)C(CO)c1ccccc1)C2 (stereo unspecified) | inactive: 1.54% | – |
| COc1ccc(OC)c([C@H](O)[C@H](C)N)c1 | inactive: 0.941% [at 21.4 µM] | – |
| CC(=O)c1c(O)c(C)c(O)c(Cc2c(O)c3c(c(C(=O)/C=C\c4ccccc4)c2O)OC(C)(C)C=C3)c1O | inactive: -15.5% | – |
| CNc1ccc2nc3ccccc3[n+](C)c2c1 | – | active: 17.8 µM |
| N#CC(C#N)=Cc1ccc(O)c(O)c1 | inactive: -9.39% | – |
| COc1ccc(N2C(=O)/C(=C/C=C/c3ccccc3[N+](=O)[O-])C(=O)NC2=S)cc1 | – | active: 28.2 µM |
| C[C@]12N[C@@H](Cc3ccccc31)c1ccccc12 | – | inactive |
| C[N+]1(C)C2CC[C@H]1CC(OC(=O)[C@@H](CO)c1ccccc1)C2 (stereo partly specified) | inactive: -0.783% | – |
| CC1COC2=C1C(=O)C(=O)c1c2ccc2c1CCCC2(C)C (stereo unspecified) | inactive: -23.7% | – |
| CC(C)NCC(O)COc1cccc2[nH]ccc12 (stereo unspecified) | – | inactive |
| C=CCN1CC[C@]23c4c5ccc(O)c4O[C@H]2C(=O)CC[C@@]3(O)[C@H]1C5 | – | inactive |
| Oc1cc2c(cc1O)[C@H]1c3ccccc3CN[C@H]1CC2 | inactive: -2.48% | – |
| C=CCN1CC[C@]23c4c5ccc(O)c4O[C@@H]2C(=O)CC[C@]3(O)[C@H]1C5 | – | inactive |
| CC(=O)Nc1nnc(S(N)(=O)=O)s1 | – | inactive |
| CCCCCCC(C)(C)c1ccc([C@@H]2C[C@H](O)CC[C@@H]2CCCO)c(O)c1 | inactive: -12.9% | – |
| NNCc1cccc(O)c1 | inactive: 3.19% | – |
| C[C@H](N)Cc1c[nH]c2ccc(O)cc12 | inactive: 3.02% | – |
| CN[C@@H](C)[C@@H](O)c1ccccc1 | inactive: -1.88% | – |
| Cc1cc(C(C)(C)C)cc(C)c1CC1=NCCN1 | – | inactive |
| CC(C)C[C@H]1C(=O)N2CCC[C@@H]2[C@]2(O)O[C@](NC(=O)[C@H]3C=C4c5cccc6[nH]c(Br)c(c56)C[C@H]4N(C)C3)(C(C)C)C(=O)N12 | inactive: -5.89% [at 21.4 µM] | – |
| CC(=O)[C@@]1(O)CC[C@H]2[C@@H]3CCC4=CC(=O)CC[C@]4(C)[C@H]3CC[C@@]21C | – | inactive |
